Test results reported in the supplement of paper PMC8728848.
The other results are listed elsewhere or left out.

Legend:
Test in all cases: glycan array binding signal (z-score within array); higher = stronger binding
Details in all cases: glycan notation: IUPAC condensed, linker removed
Fuc(a1-2)Gal = biological target: Fuc(a1-2)Gal
How it was run: (§1)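 From the Consortium for Functional Glycomics database, 3228 arrays were curated, keeping only those whose protein sequence was available. Binding is given as a within-array Z-score averaged across arrays sharing a protein sequence and across linkers. Negative Z-scores can be read as non-binding.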

Fuc(a1-2)Gal(b1-3)GalNAc = biological target: Fuc(a1-2)Gal(b1-3)GalNAc
How it was run: as §1

[1] = biological target: Fuc(a1-2)Gal(b1-3)GalNAc(a1-3)[Fuc(a1-2)]Gal(b1-4)Glc
How it was run: as §1

[2] = biological target: Fuc(a1-2)Gal(b1-3)GalNAc(a1-3)[Fuc(a1-2)]Gal(b1-4)GlcNAc
How it was run: as §1

[3] = biological target: Fuc(a1-2)Gal(b1-3)GalNAc(b1-3)Gal
How it was run: as §1

[4] = biological target: Fuc(a1-2)Gal(b1-3)GalNAc(b1-3)Gal(a1-4)Gal(b1-4)Glc
How it was run: as §1

[5] = biological target: Fuc(a1-2)Gal(b1-3)GalNAc(b1-4)[Neu5Ac(a2-3)]Gal(b1-4)Glc
How it was run: as §1

Fuc(a1-2)Gal(b1-3)GlcNAc = biological target: Fuc(a1-2)Gal(b1-3)GlcNAc
How it was run: as §1

[6] = biological target: Fuc(a1-2)Gal(b1-3)GlcNAc(b1-2)Man(a1-3)[Fuc(a1-2)Gal(b1-3)GlcNAc(b1-2)Man(a1-6)]Man(b1-4)GlcNAc(b1-4)GlcNAc
How it was run: as §1

[7] = biological target: Fuc(a1-2)Gal(b1-3)GlcNAc(b1-2)Man(a1-3)[Fuc(a1-2)Gal(b1-3)GlcNAc(b1-2)Man(a1-6)]Man(b1-4)GlcNAc(b1-4)[Fuc(a1-6)]GlcNAc
How it was run: as §1

[8] = biological target: Fuc(a1-2)Gal(b1-3)GlcNAc(b1-3)Gal(b1-4)Glc
How it was run: as §1

[9] = biological target: Fuc(a1-2)Gal(b1-3)GlcNAc(b1-3)GalNAc
How it was run: as §1

[10] = biological target: Fuc(a1-2)Gal(b1-3)GlcNAc(b1-3)[Fuc(a1-2)Gal(b1-3)GlcNAc(b1-6)]GalNAc
How it was run: as §1

[11] = biological target: Fuc(a1-2)Gal(b1-3)GlcNAc(b1-3)[Gal(b1-4)GlcNAc(b1-6)]Gal(b1-4)Glc
How it was run: as §1

[12] = biological target: Fuc(a1-2)Gal(b1-3)GlcNAc(b1-3)[Neu5Ac(a2-6)Gal(b1-4)GlcNAc(b1-6)]Gal(b1-4)Glc
How it was run: as §1

[13] = biological target: Fuc(a1-2)Gal(b1-3)GlcNAc6S
How it was run: as §1

[14] = biological target: Fuc(a1-2)Gal(b1-3)[Fuc(a1-4)]GlcNAc
How it was run: as §1

[15] = biological target: Fuc(a1-2)Gal(b1-3)[Fuc(a1-4)]GlcNAc(b1-2)Man(a1-3)[Fuc(a1-2)Gal(b1-3)[Fuc(a1-4)]GlcNAc(b1-2)Man(a1-3)]Man(b1-4)GlcNAc(b1-4)GlcNAc
How it was run: as §1

[16] = biological target: Fuc(a1-2)Gal(b1-3)[Fuc(a1-4)]GlcNAc(b1-2)Man(a1-3)[Fuc(a1-2)Gal(b1-3)[Fuc(a1-4)]GlcNAc(b1-2)Man(a1-6)]Man(b1-4)GlcNAc(b1-4)[Fuc(a1-6)]GlcNAc(b1-4)[Fuc(a1-6)]GlcNAc
How it was run: as §1

[17] = biological target: Fuc(a1-2)Gal(b1-3)[Fuc(a1-4)]GlcNAc(b1-3)[Fuc(a1-3)[Gal(b1-4)]GlcNAc(b1-6)]Gal(b1-4)Glc
How it was run: as §1

[18] = biological target: Fuc(a1-2)Gal(b1-3)[Fuc(a1-4)]GlcNAc(b1-3)[Gal(b1-4)GlcNAc(b1-6)]Gal(b1-4)Glc
How it was run: as §1

Fuc(a1-2)Gal(b1-4)Glc = biological target: Fuc(a1-2)Gal(b1-4)Glc
How it was run: as §1

Fuc(a1-2)Gal(b1-4)Glc6S = biological target: Fuc(a1-2)Gal(b1-4)Glc6S
How it was run: as §1

Fuc(a1-2)Gal(b1-4)GlcNAc = biological target: Fuc(a1-2)Gal(b1-4)GlcNAc
How it was run: as §1

[19] = biological target: Fuc(a1-2)Gal(b1-4)GlcNAc(b1-2)Man
How it was run: as §1

[20] = biological target: Fuc(a1-2)Gal(b1-4)GlcNAc(b1-2)Man(a1-3)[Fuc(a1-2)Gal(b1-4)GlcNAc(b1-2)Man(a1-6)]Man(b1-4)GlcNAc(b1-4)GlcNAc
How it was run: as §1

[21] = biological target: Fuc(a1-2)Gal(b1-4)GlcNAc(b1-2)Man(a1-3)[Fuc(a1-2)Gal(b1-4)GlcNAc(b1-2)Man(a1-6)]Man(b1-4)GlcNAc(b1-4)[Fuc(a1-6)]GlcNAc
How it was run: as §1

[22] = biological target: Fuc(a1-2)Gal(b1-4)GlcNAc(b1-2)[Fuc(a1-2)Gal(b1-4)GlcNAc(b1-4)]Man(a1-3)[Fuc(a1-2)Gal(b1-4)GlcNAc(b1-2)Man(a1-6)]Man(b1-4)GlcNAc(b1-4)GlcNAc
How it was run: as §1

[23] = biological target: Fuc(a1-2)Gal(b1-4)GlcNAc(b1-3)Gal(b1-4)GlcNAc
How it was run: as §1

[24] = biological target: Fuc(a1-2)Gal(b1-4)GlcNAc(b1-3)Gal(b1-4)GlcNAc(b1-2)Man(a1-3)[Fuc(a1-2)Gal(b1-4)GlcNAc(b1-3)Gal(b1-4)GlcNAc(b1-2)Man(a1-6)]Man(b1-4)GlcNAc(b1-4)GlcNAc
How it was run: as §1

B1: rCnSL-proA (Clitocybe nebularis) (protein)
chain: AAFFSLVVLLALLPFGIHASALPSTELTPRVNPNLPGPNDVFVGFRGTNNIVGAIYEKDGIKDTPLNNGADAEMGPGSYITDGLFTARIFASGSAGNNPGTTATVCKIYASGVQWRGAPKGYIPVAYFGNGPTAEQRRQTYLRTLGLPGTAIRFGNLNTNPGQGPTAPRQMVVPPGPLRSLLKASCFPAADTRLPQTLHYFEKRVDWNIITAADSQTWGH
- glycan array binding signal (z-score) (Fuc(a1-2)Gal): -0.21
- glycan array binding signal (z-score) (Fuc(a1-2)Gal(b1-3)GalNAc): -0.318
- glycan array binding signal (z-score) [1]: -0.536
- glycan array binding signal (z-score) [2]: -0.429
- glycan array binding signal (z-score) [3]: 0.305
- glycan array binding signal (z-score) [4]: -0.6
- glycan array binding signal (z-score) [5]: -0.514
- glycan array binding signal (z-score) (Fuc(a1-2)Gal(b1-3)GlcNAc): -0.622
- glycan array binding signal (z-score) [6]: 0.11
- glycan array binding signal (z-score) [7]: 1.7
- glycan array binding signal (z-score) [8]: -0.343
- glycan array binding signal (z-score) [9]: -0.242
- glycan array binding signal (z-score) [10]: -0.094
- glycan array binding signal (z-score) [11]: 0.548
- glycan array binding signal (z-score) [12]: -0.164
- glycan array binding signal (z-score) [13]: -0.302
- glycan array binding signal (z-score) [14]: -0.287
- glycan array binding signal (z-score) [15]: 6
- glycan array binding signal (z-score) [16]: 0.195
- glycan array binding signal (z-score) [17]: -0.573
- glycan array binding signal (z-score) [18]: -0.078
- glycan array binding signal (z-score) (Fuc(a1-2)Gal(b1-4)Glc): -0.272
- glycan array binding signal (z-score) (Fuc(a1-2)Gal(b1-4)Glc6S): -0.186
- glycan array binding signal (z-score) (Fuc(a1-2)Gal(b1-4)GlcNAc): -0.477
- glycan array binding signal (z-score) [19]: -0.148
- glycan array binding signal (z-score) [20]: 0.274
- glycan array binding signal (z-score) [21]: 3.05
- glycan array binding signal (z-score) [22]: 1.54
- glycan array binding signal (z-score) [23]: -0.388
- glycan array binding signal (z-score) [24]: 0.72
